{
  "source": "patent US20250002564A1",
  "about": "(HOSPITAL FOR SICK CHILDREN, published 2025)",
  "key": {"[1]": {"target": "T1, SARS-CoV-2 Spike on wild-type pseudotyped virus (PsV) (SARS-CoV-2)", "test": "cell-based or functional assay"}, "[2]": {"target": "T1, SARS-CoV-2 Spike on wild-type …", "test": "cell-based or functional assay", "remark": "listed apart in the source"}},
  "note": "Several values for one entry are separate records, joined by “and”; a condition that tells them apart may be missing. Equal entries are not always repeated.",
  "data": [
    {"binder": "MB 178 (other) chain 1: EIVMTQSPATLSVSPGERATLSCKASQSVSGTYLAWYQQKPGQAPRLLIYGASTRATGIPARFSGSGSGTEFTLTISSLQSEDFAVYYCLQTHSYPPTFGQGTKVEIKRTVAAPSVFIFPPSDEQLKSGTASVVCLLNNFYPREAKVQWKVDNALQSGNSQESVTEQDSKDSTYSLSSTLTLSKADYEKHKVYACEVTHQGLSSPVTKSFNRGECGGGGSGGGGSGGGGSGGGGSGGGGSGGGGSGGGGSGGGGSGGGGSGGGGSGGGGSGGGGSGGGGSGGGGSQVQLVQSGAEVKKPGASVKVSCKASGYTFTDYHMHWVRQAPGQGLEWMGWINPNSGGTNYAQKFQGRVTMTRDTSTSTVYMELSSLRSEDTAVYYCARDISSWYEITKFDPWGQGTLVTVSSASTKGPSVFPLAPSSKSTSGGTAALGCLVKDYFPEPVTVSWNSGALTSGVHTFPAVLQSSGLYSLSSVVTVPSSSLGTQTYICNVNHKPSNTKVDKKVEPKSCGGGGSGGGGSGGGGSGGGGSGGGGSGG[about 200 residues omitted] chain 2: [human IgG1 Fc omitted]GGGGSGGGGSGGGGSGGGGSGGGGSGGGGSGGGGSGGGGSGGGGSGGGGSGGGGSGGGGSGGGGSGGGGS[human IgG1 Fc omitted]GGGGSGGGGSGGGGSGGGGSGGGGSGGSSQIRQNYSTDVEAAVNSLVNLYLQASYTYLSLGFYFDRDDVALEGVSHFFRELAEEKREGYERLLKMQNQRGGRALFQDIKKPAEDEW chain 3: EIVMTQSPATLSVSPGERATLSCKASQSVSGTYLAWYQQKPGQAPRLLIYGASTRATGIPARFSGSGSGTEFTLTISSLQSEDFAVYYCLQTHSYPPTFGQGTKVEIKRTVAAPSVFIFPPSDEQLKSGTASVVCLLNNFYPREAKVQWKVDNALQSGNSQESVTEQDSKDSTYSLSSTLTLSKADYEKHKVYACEVTHQGLSSPVTKSFNRGECGGGGSGGGGSGGGGSGGGGSGGGGSGGGGSGGGGSGGGGSGGGGSGGGGSGGGGSGGGGSGGGGSGGGGSQVQLVQSGAEVKKPGASVKVSCKASGYTFTDYHMHWVRQAPGQGLEWMGWINPNSGGTNYAQKFQGRVTMTRDTSTSTVYMELSSLRSEDTAVYYCARDISSWYEITKFDPWGQGTLVTVSSASTKGPSVFPLAPSSKSTSGGTAALGCLVKDYFPEPVTVSWNSGALTSGVHTFPAVLQSSGLYSLSSVVTVPSSSLGTQTYICNVNHKPSNTKVDKKVEPKSCGGGGSGGGGSGGGGSGGGGSGGGGSGGGKTPDAMKAAMALEKKLNQALLDLHALGSARTDPHLCDFLETHFLDEEVKLIKKMGDHLTNLHRLGGPEAGLGEYLFERLTLRHD", "values": [
      {"measurement": "IC50 SARS-CoV2 PsV (MB)", "setting": "[1]", "value": 1.7, "unit": "µg/mL"},
      {"measurement": "Median IC50", "setting": "[2]", "value": "1.7 µg/mL and 0.74 nM"}
    ]}
  ]
}
